For this series, the system named is ATP. Description: switch fluorescence ratio, 500 uM ATP over buffer (Cy3 cluster intensity, sum of 5 cycles each) (fold (ratio)); higher = stronger signal-on switching upon ATP binding; sequences stand for … in TCGTCGGCAGCGTCAGATGTGTATAAGAGACAGTTTTTTTTTTTTTTTTTTTTTTTTT…TC. The following applies: aptamer strand: ATP DNA aptamer (quencher-CACCTGGGGGAGTATTGCGGAGGAAGG + anchor), 100 nM annealed; ATP concentration: 500 uM; one replicate. In short, it runs like this:
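The quencher-labelled ATP aptamer, at 100 nM, was annealed to Cy3-labelled switching-strand clusters on a modified Illumina MiSeq flow-cell. The clusters were imaged in selection buffer, then after 15 min with 500 uM ATP at 22 °C, and this buffer/ATP cycle ran five times with NaOH stripping and re-annealing between runs. Per-cluster fluorescence ratios, summed target-cycle over summed buffer-cycle Cy3 intensity, were averaged per switch-domain sequence. Clusters outside 100-1000 RFU were excluded.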

Sequences with one replicate were seen in a single cluster, so their values are uncertain.
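Note: ATP exposure 15 min at 22 °C before imaging.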

Regarding AGTGTGACAA, the switch fluorescence ratio was 0.99.

Regarding GGTGGTCAAG, the switch fluorescence ratio worked out at 0.999.

Turning to TTGCTGAGGG, the switch fluorescence ratio is 0.98.

Consider GCTACCCCA, for which the switch fluorescence ratio came out at 2.13.

Regarding GTTAGCCGAT, the switch fluorescence ratio stood at 1.

For the sequence ACTTGTGACC, the switch fluorescence ratio turned out to be 0.96.

As to GATACGAGGT, the switch fluorescence ratio turned out to be 1.01.

With ATAAAGAGTT, the switch fluorescence ratio is 1.03.

As for TGTTCTGCTG, the switch fluorescence ratio is 1.04.

Take ACTAACTCAG: the switch fluorescence ratio is 1.11.

For the sequence CCATCCGCAC, the switch fluorescence ratio stood at 2.63.

For CGCGAAGGTT, the switch fluorescence ratio came to 1.02.

Take CGCTTCGGGA: the switch fluorescence ratio amounted to 1.01.

As for TCCCGCTGGT, the switch fluorescence ratio came out at 1.06.

In the case of CCTTTCTCTG, the switch fluorescence ratio was found to be 2.5.

Consider TTCGATACGC, for which the switch fluorescence ratio stood at 1.02.

Turning to TCGTCCCATG, the switch fluorescence ratio worked out at 1.11.

Take GGTTTTGCCG: the switch fluorescence ratio came out at 1.01.

With TTGTGGTTGA, the switch fluorescence ratio worked out at 1.05.

As for AACGAATTCC, the switch fluorescence ratio worked out at 1.02.

With AACGGCCGGC, the switch fluorescence ratio came to 1.12.

With CTTGATAAAG, the switch fluorescence ratio amounted to 0.997.

On to GATGCGACTG, for which the switch fluorescence ratio is 1.04.

With ATCCACGCCC, the switch fluorescence ratio was 1.23.

In the case of AAGCCTAGGG, the switch fluorescence ratio amounted to 1.03.

For TCGCATAGGG, the switch fluorescence ratio turned out to be 1.25.

In the case of ACCACAAGGG, the switch fluorescence ratio worked out at 1.06.

Consider AAATGGTTGA, for which the switch fluorescence ratio was found to be 0.969.

For CCTCGCATTT, the switch fluorescence ratio is 1.91.

As for AAAGTCCCTC, the switch fluorescence ratio came out at 1.01.

Consider CGGGTATCGC, for which the switch fluorescence ratio was 1.03.

Take AGAAATTTT: the switch fluorescence ratio amounted to 0.972.

For the sequence TACTTTAGT, the switch fluorescence ratio worked out at 1.02.

Regarding TCTGGGATAC, the switch fluorescence ratio amounted to 4.1.

GACACCGTTC: the switch fluorescence ratio came out at 1.07.

Regarding GCGACAGATA, the switch fluorescence ratio amounted to 1.05.

Turning to CTAGGGATTG, the switch fluorescence ratio amounted to 0.985.

ACCTCATGTG: the switch fluorescence ratio was determined as 1.29.

For TTTGCATT, the switch fluorescence ratio came to 1.09.

As to GAACGGCGGC, the switch fluorescence ratio was found to be 0.999.

Regarding TTTAAATATA, the switch fluorescence ratio stood at 0.997.

In the case of TCTCGATGGA, the switch fluorescence ratio amounted to 1.01.

With CGGGGTTCTA, the switch fluorescence ratio is 1.

As for AGGCTAAAAA, the switch fluorescence ratio stood at 1.

Take CCTTCATAA: the switch fluorescence ratio stood at 1.18.

Take ATACAGCTTT: the switch fluorescence ratio was 1.

Turning to GTCCTATATA, the switch fluorescence ratio was determined as 0.994.

On to TACTTGGCTA, for which the switch fluorescence ratio stood at 1.03.

For GACTGTAGTG, the switch fluorescence ratio came to 0.993.

Regarding ATGGCGCATT, the switch fluorescence ratio worked out at 1.03.

For the sequence TTCTCTCCGA, the switch fluorescence ratio is 1.53.

Take TGACTGCAAA: the switch fluorescence ratio amounted to 1.18.

On to ACGACTCGC, for which the switch fluorescence ratio stood at 1.25.

With TCTATCTAA, the switch fluorescence ratio was 0.977.

Consider CGTGGCACTC, for which the switch fluorescence ratio was 1.08.

GGATATTGGG: the switch fluorescence ratio amounted to 0.963.

For GGCAAAACGA, the switch fluorescence ratio was found to be 1.1.

Consider TGTTACTAAT, for which the switch fluorescence ratio was 1.

With TCACCTGA, the switch fluorescence ratio stood at 0.977.

Take TCATGCAGGA: the switch fluorescence ratio worked out at 1.03.

Take ATCCTCGCCT: the switch fluorescence ratio amounted to 3.79.

Consider TGAGTTTAAC, for which the switch fluorescence ratio was found to be 0.956.

Regarding GTATAGCCCC, the switch fluorescence ratio came out at 0.994.

Turning to CATGCCTCGT, the switch fluorescence ratio stood at 0.99.

On to CCGTCTAGGT, for which the switch fluorescence ratio was determined as 1.01.

As to GAACTACTGG, the switch fluorescence ratio was 1.07.

In the case of GATGATATC, the switch fluorescence ratio turned out to be 1.

As for TATAGTAAAG, the switch fluorescence ratio turned out to be 1.01.

For CACTGCTTCA, the switch fluorescence ratio worked out at 1.06.

As to CTGGTCACCT, the switch fluorescence ratio came out at 1.07.

AATCGTCTGA: the switch fluorescence ratio amounted to 1.01.

As for GGGCTAACCC, the switch fluorescence ratio was 0.967.

In the case of TGACTCCTTA, the switch fluorescence ratio was 1.03.

TGGGGGTCCA: the switch fluorescence ratio turned out to be 0.987.

Take AGACGGGTCT: the switch fluorescence ratio was 1.04.

As to GCTGCAGCTA, the switch fluorescence ratio is 1.02.

On to GACATGGTCC, for which the switch fluorescence ratio turned out to be 1.02.

Take TCTGACAAAA: the switch fluorescence ratio is 2.08.

CAACGCTATG: the switch fluorescence ratio worked out at 1.22.

As to CATACCGGTA, the switch fluorescence ratio came to 0.999.

As to TGGTAGAGCT, the switch fluorescence ratio turned out to be 0.982.

Consider TGGGTCACGA, for which the switch fluorescence ratio worked out at 0.968.

Consider GATCCCAGAA, for which the switch fluorescence ratio was 0.996.

As to TTTCTGGCCT, the switch fluorescence ratio is 1.01.

As to TCGATTAGTC, the switch fluorescence ratio is 0.962.

Consider TGAGCAACA, for which the switch fluorescence ratio amounted to 1.02.

As to CAGACATGTC, the switch fluorescence ratio came out at 0.99.

As to CTATGTTTTA, the switch fluorescence ratio was 0.957.

Regarding TATTGGCAGT, the switch fluorescence ratio was 0.925.

For AGGGTCATG, the switch fluorescence ratio turned out to be 0.998.

As for GAAAGGCCGG, the switch fluorescence ratio stood at 1.01.

As to AAGTATGCGG, the switch fluorescence ratio is 0.945.

Regarding GTGTCAAGAT, the switch fluorescence ratio stood at 1.

For the sequence CAATTTTCAA, the switch fluorescence ratio amounted to 0.978.

Take TTCTGTTTGC: the switch fluorescence ratio was determined as 0.975.

In the case of ATTAAGCG, the switch fluorescence ratio is 1.03.

Turning to AGTCCCGGGG, the switch fluorescence ratio stood at 1.06.

In the case of AAGGATACAA, the switch fluorescence ratio was determined as 0.979.

In the case of GATTCAGACG, the switch fluorescence ratio came to 1.02.

For CCAATAATAG, the switch fluorescence ratio was 1.53.

On to CAGGATAATT, for which the switch fluorescence ratio was determined as 0.991.

For the sequence ATTCAGGCTC, the switch fluorescence ratio was found to be 0.993.

On to TATTATCGGC, for which the switch fluorescence ratio came to 0.985.

With GTTTTTTCCA, the switch fluorescence ratio was 1.05.

As to ATGAAATTT, the switch fluorescence ratio was found to be 0.996.

Take TAAGGAAAA: the switch fluorescence ratio was found to be 0.991.

As to GGGTGGGATC, the switch fluorescence ratio was found to be 0.974.

For AATCGATA, the switch fluorescence ratio worked out at 1.

For the sequence AGCTTCT, the switch fluorescence ratio was 1.01.

On to TTCTAGAATG, for which the switch fluorescence ratio was 0.971.

On to TTACCACCAC, for which the switch fluorescence ratio was determined as 1.28.

With CAATACGATT, the switch fluorescence ratio was 1.19.

With CATAGTCATG, the switch fluorescence ratio was found to be 0.935.

With CCTTTGTTAA, the switch fluorescence ratio was found to be 1.1.

CAGAGCCGAC: the switch fluorescence ratio turned out to be 1.02.

As for TTATGCTCAT, the switch fluorescence ratio was 0.979.

For CCACTATT, the switch fluorescence ratio was 1.07.

As for AGGAGAGTCG, the switch fluorescence ratio is 0.973.

TAACAGTGCG: the switch fluorescence ratio turned out to be 0.963.

Turning to ATTTGCTCAA, the switch fluorescence ratio came to 0.966.

Regarding TTTACAGACG, the switch fluorescence ratio is 1.12.

The values above are taken from the supplement of paper PMC10126150.
